Some of the results follow. At the low end of the ranking, values are background and their order means little. The protein was read in a cell extract, so binding may be indirect.

The target in this experiment is T1, HNF4alpha2 (COS-7 nuclear extract) (UniProt P41235).
T1 sequence: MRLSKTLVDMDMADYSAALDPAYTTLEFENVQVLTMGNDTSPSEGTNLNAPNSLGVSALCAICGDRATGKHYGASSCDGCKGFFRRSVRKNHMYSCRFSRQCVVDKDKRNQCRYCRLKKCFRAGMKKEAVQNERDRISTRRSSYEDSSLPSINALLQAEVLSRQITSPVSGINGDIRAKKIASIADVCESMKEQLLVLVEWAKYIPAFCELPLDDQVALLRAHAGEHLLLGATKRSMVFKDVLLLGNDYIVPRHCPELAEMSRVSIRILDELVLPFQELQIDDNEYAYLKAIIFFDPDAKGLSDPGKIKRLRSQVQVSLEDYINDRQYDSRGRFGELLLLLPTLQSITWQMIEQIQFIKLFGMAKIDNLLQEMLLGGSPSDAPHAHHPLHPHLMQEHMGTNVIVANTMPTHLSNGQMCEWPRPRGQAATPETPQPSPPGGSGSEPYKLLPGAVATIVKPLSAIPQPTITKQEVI
Put plainly: protein-binding microarray. The conditions noted are these: COS-7 nuclear extract on double-stranded Agilent 4x180k PBM; binding buffer, salt, pH and temperature not given; high values mean tight binding; double strand, one strand shown; sequences stand for … in …GCCTAGGGAGATTAGAGTATCGGTCGA
Consider GCTGTGATGTTTGCCCATGATCATATGGAC, for which the binding signal (log2 normalized intensity) is 2.07. Under CCCTTGTCTTCCTCAAATTACAAAAGGAGT stands 1.46.

For the sequence CCACTAGCAACAGCTGCAGTGAAATTCTGG, the binding signal (log2 normalized intensity) was -1.11. The value for CTTGGCTAACAAAGCTCAGGGCAAAGACTC was -1.22; that for TCAGTTTCATTGCACTTTGCCCTCTCTTCA was 6.57. The value for GCCAACAAACTCAATCCTGGCCTCTGAGGT was -1.15. For AGTCAACATGTCATTGGCAGAAGGTGGAAC, the binding signal (log2 normalized intensity) worked out at 1.67.

With CCCCACATTCCAACACAGGGTCAATGTCCC, the binding signal (log2 normalized intensity) is 2.71.

On to CTTTTTGGCCTTTGGCTGTTCGATGTATAC, for which the binding signal (log2 normalized intensity) turned out to be 2.13. Under TTTTTTGCTTAGATGGTTTAAAGAATTCTG stands 1.46; under TTGATGTGAGGGTAGGAGCCTAGCTTCCTT, -1.1. The value for TTTACTTATCATAAGTCAGCCTGGCTGAAG was 1.43; that for TTCTTCCAGTTGTGTGCACAAGAGGGTGGG was 0.619. For the sequence GTCAAAAGGTGTATGTGGACTTTCAACTGC, the binding signal (log2 normalized intensity) is 5.14.

Regarding CGTAATACAAAGGCAGCCATTGACGGTATG, the binding signal (log2 normalized intensity) is -0.671. In the case of TTGTACACATTCCTTTGGATCATGTGTCTG, the binding signal (log2 normalized intensity) came out at 1.67. In the case of TGGGTTGAGGCTAAGAGGTGAACACATTCC, the binding signal (log2 normalized intensity) is -0.453.

Regarding TGGTTAGTTCCAAAGGACAAATCTCACTGA, the binding signal (log2 normalized intensity) turned out to be 1.11.

As to ATTCAACTTTGACTTCCATTGTGTTGCAGA, the binding signal (log2 normalized intensity) was found to be 0.927. The value for ACAGCCTTGTTTACAACGCTGTTGTCTGTG was 0.685; that for CAGAGCTAATGTTCAAATCCAGACACTTTG was 0.377. Under TAGGGGCCGCATTGATGTTAGAATACAAGT stands -0.0126; under CCAGCGGGTCATTAATTCCCAGGAATTGGC, -1.1; under GCTTCACAGCCCTCCAACTATGCTAAGAAT, -0.516. Under AAGTCTGAGATGAAGAGGCCAGGGGCACTC stands -1.09; under AGATAAATGGTGTAGAGGCCAGAGGTCGTG, 1.93. Take AATGTGCCCTTTGACCTCTCTCTCCTAACT: the binding signal (log2 normalized intensity) is 6.48. Under AAACACACTTGCTCTAATCCTTTAAAAAAA stands -0.966; under AGCTGAAGTTTGCAAACAGTAAAGAACAAA, -0.878; under GCCTTGGAAAACCCGGCGCGGACATAAAAT, -1.06. On to TGCGTCCCCAGGTGAACTCAGTCCTTTCAG, for which the binding signal (log2 normalized intensity) was 0.278.

Consider TCATTTTCTTATCTCACACAGTACTTTGTA, for which the binding signal (log2 normalized intensity) is 2.03. The value for GAGGCCTCATTGGCCAGTATCCGCCTTCAC was -1.02; that for TCCCACTTCAGCCTCCCGAGTAGTTGGGTC was 1.75; that for AAAAAACCTGTTCAGCCAGATTCTCTCACT was -1.08. The value for CTTTGCCCGGATTCCAGCAACTTCCTCTTG was -1.18; that for GCCATGGACTGCTGACCTTTGAACCCTGAG was 10.1.

In the case of TCCACAGATAAGGAGGAGACAGACTTATCG, the binding signal (log2 normalized intensity) is -1.15.

For the sequence GCAAGACTGCATTCCCTAGATGTCGCAGTA, the binding signal (log2 normalized intensity) was -1.2. The value for CACCACTAGGAAACTGACCTTTGCTCATGA was 6.73. With AGGAAATCAAAAACCATTTGACAATTTACA, the binding signal (log2 normalized intensity) is -0.703. Under GAGACATGTGGCCTTTGGTACAGGGCCCAG stands 1.42; under GGTCAGAGTAAAGCTCCAGTCTCCTCCCTG, -0.958.

Consider CACCAGATAGCAAGGAGACATCGCTCCTCC, for which the binding signal (log2 normalized intensity) is -1.25. The value for CTCCAACTGCTCCTCTTCAACTGATTCTTG was 0.359; that for AGAAAGAAAAAGTACACACCTGCAACCTAT was -1.11. The value for TTTTCATCTGATCAGTGCCCATCTGGTGGT was 1.51; that for AGCTTCTCTTTCTAGGTCACCACCTTTTTT was 1.37; that for CCGGGGAGATACTGTAAACCAGCAGTATCT was -1.1. Under AACTGGACTAGACAGGCTTGTCGAGGACAG stands -1.09; under GTTAAGTGAGTGGACTTTGGTCCTGGTCAG, 6.52. In the case of GGAGCAGCATGGCCCTTTGCAGCCCGAGCT, the binding signal (log2 normalized intensity) is -1.07. Take CAAAGGTCAGATGACAGAATTGGTCCTGGA: the binding signal (log2 normalized intensity) amounted to 2.21. Under ACCTACACCTATGTGGTCAAAACTTTGTTT stands 0.46; under TTTATCAGTGATTTCTCTTCCATCTCAGCT, -1.14; under AAAGCTCACAGATGTGGAATGAAACCAGTT, -0.573. Under CGGAGCGCCGAGCAGGCACCCCGGGAGCGC stands -1.2; under TTCCTCAACTCTAGGAGCATGTCAAAAGCT, -1.06. The value for AGGGCAGCATAATCACATACAGGCCAGCTG was -1.25; that for GGTCCTGCCATTAAACACCTTATTTGGTCA was 1.44. On to TGTTCGCAGACCTGCCAAAGTGTACCCTGT, for which the binding signal (log2 normalized intensity) amounted to 2.8. Take TAATCATATCTGCCTCAGTAGTAGTGAAAA: the binding signal (log2 normalized intensity) turned out to be 1.48.

As to CCAAAAAGCATAACTGTATAACCTGGAACT, the binding signal (log2 normalized intensity) is -1.13. Under AGAATGAGCCTCTTCTTTAATAAGAAAAGG stands -1.09.

As for AAATTCCTAGCCCTCTTTCAAAGACAAATA, the binding signal (log2 normalized intensity) came to 0.281. Under AGTAATCAATGGTTGCACTCTGGTGCCCTC stands 2.25; under CATTGCCCCCTATGTAAAGGCCTTTGAAGC, 3.5; under GTCTGCACTCCAGGAAAGACGAGTGCGCTT, -1.09. The value for GCGTGGCCCAGCATGCCCCGCGCCGCGTCC was 0.859; that for AGAGAGTTCTATGGGATGACCTTTGAGCAA was 6.93. The value for GGCAGATATGAAAGAGCCATGGACTGCTGA was -0.302; that for TGAGAAGGGCTAATATTTGCAAATGACTTT was -1.05; that for TGAAATCTACAGGACAGCCAGGCAGTCGGG was -1.15.

The record behind these values is PMC10726135.
